# Laboratory results published in a collection of fitness landscapes (doi:10.1016/j.celrep.2020.107928).
# In all, about 81,000 sequences were measured (“one-hybrid fitness for binding NBS DNA”: median about -0.1, highest 2% from about 0.36 on). The list shows a part of the results.
# B1: Caulobacter ParB omega fusion; a variant is named by its letters at X, in order, B8GW30 (parent)
# chain: MESVVVGEPGMSEGRRGLGRGLSALLGEVDAAPAQAPGEQLGGSREAPIEILQRNPDQPRRTFREEDLEDLSNSIREKGVLQPILVRPSPDTAGEYQIVAGERAWRAAQRAGLKTVPIMVRELDDLAVLEIGIIENVQRADLNVLEEALSYKVLMEKFERTQENIAQTIGKSXSHVANXMRLLXLPDEVQSYLVSGELTAXHARAIAAAADPVALAKQIIEGGLSVRETEALARKAPNLSAGKSKGGRPPRVKDTDTQALESDLSSVLGLDVSIDHRGSTGTLTITYATLEQLDDLCNRLTRGI
# Variants of: B1
# Assay: one-hybrid fitness for binding NBS DNA (the Noc-binding site; scaled: cognate 1, non-cognate 0); higher = stronger binding
# Details: with NBS DNA site
# Procedure, shortened: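 The reporter was HIS3, with the binding site 19 bp from the promoter, in E. coli USO used for bacterial one-hybrid selection of Caulobacter ParB libraries with four specificity codons randomised. Growth was on M9 lacking histidine, with 0.1 mM IPTG and 5 mM 3-AT, for 48 hours at 37°C. Illumina sequencing covered plasmids before and after selection; three replicate libraries were pooled and variants with under 10 reads dropped. A fitness score is the log change in variant-to-wild-type read ratio, rescaled to the cognate and non-cognate references.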
row,Variant,one-hybrid fitness for binding NBS DNA
1,RGLM,≤ 0.2
2,YRNC,≤ 0.2
3,PPYN,≤ 0.2
4,DTQR,≤ 0.2
5,HHMS,≤ 0.2
6,ECPS,≤ 0.2
7,HIFR,≤ 0.2
8,LRRN,≤ 0.2
9,GPAI,≤ 0.2
10,RVKC,0.26
11,VFMG,≤ 0.2
12,MPRH,≤ 0.2
13,GWHV,≤ 0.2
14,PCFT,≤ 0.2
15,LPSF,≤ 0.2
16,SPIS,≤ 0.2
17,CSSG,≤ 0.2
18,GGWT,≤ 0.2
19,MTTS,≤ 0.2
20,ISHG,≤ 0.2
21,ADMC,≤ 0.2
22,DISP,≤ 0.2
23,RILQ,≤ 0.2
24,PMSA,≤ 0.2
25,YYSL,≤ 0.2
26,ETSM,≤ 0.2

row,Variant,one-hybrid fitness for binding NBS DNA
1,ELKR,≤ 0.2
2,QTHW,0.202
3,RRYF,≤ 0.2
4,QLCE,≤ 0.2
5,VVQN,≤ 0.2
6,LQNY,≤ 0.2
7,RKAG,≤ 0.2
8,LEGS,≤ 0.2
9,AKGA,≤ 0.2
10,QPES,≤ 0.2
11,CRMT,≤ 0.2
12,LVEL,≤ 0.2
13,HSHD,≤ 0.2
14,PAAY,≤ 0.2
15,CSEC,≤ 0.2
16,AQTA,≤ 0.2
17,GVNC,≤ 0.2
18,NGRF,≤ 0.2
19,SMMC,≤ 0.2
20,PDTN,≤ 0.2
21,TCKS,≤ 0.2
22,RGGP,≤ 0.2
23,EAQC,≤ 0.2
24,VYCC,≤ 0.2
25,AISL,≤ 0.2
26,ELKT,≤ 0.2

row,Variant,one-hybrid fitness for binding NBS DNA
1,QRSQ,0.434
2,MFQG,≤ 0.2
3,YLLY,≤ 0.2
4,KGKS,≤ 0.2
5,STKQ,≤ 0.2
6,KICR,≤ 0.2
7,FQRA,≤ 0.2
8,QVRI,≤ 0.2
9,QHAI,≤ 0.2
10,YKNS,≤ 0.2
11,TMIL,≤ 0.2
12,NYSV,≤ 0.2
13,ALMY,≤ 0.2
14,SFFG,≤ 0.2
15,TVDS,≤ 0.2
16,AMMC,≤ 0.2
17,PNSS,≤ 0.2
18,KTTH,≤ 0.2
19,YAPV,≤ 0.2
20,THSA,≤ 0.2
21,KTSS,≤ 0.2
22,AVNS,≤ 0.2
23,RNTI,≤ 0.2
24,WFLT,≤ 0.2
25,RGAN,≤ 0.2
26,CDFR,≤ 0.2

row,Variant,one-hybrid fitness for binding NBS DNA
1,PDVL,≤ 0.2
2,GQQN,≤ 0.2
3,SAVL,≤ 0.2
4,VWET,≤ 0.2
5,YMVG,≤ 0.2
6,RRCN,0.248
7,GLNR,≤ 0.2
8,AFDR,≤ 0.2
9,SVER,≤ 0.2
10,GEAA,≤ 0.2
11,TEIT,≤ 0.2
12,VDPH,≤ 0.2
13,VQET,≤ 0.2
14,MYAM,≤ 0.2
15,LSNP,≤ 0.2
16,FCAH,≤ 0.2
17,HSAF,≤ 0.2
18,VWAC,≤ 0.2
19,YARL,≤ 0.2
20,FYGT,≤ 0.2
21,HRVC,≤ 0.2
22,RVSN,≤ 0.2
23,YNLL,≤ 0.2
24,KMHS,≤ 0.2
25,DKML,≤ 0.2
26,TLGS,≤ 0.2

row,Variant,one-hybrid fitness for binding NBS DNA
1,NKKY,≤ 0.2
2,TMDL,≤ 0.2
3,AIQL,≤ 0.2
4,VDTA,≤ 0.2
5,QEPV,≤ 0.2
6,HASM,≤ 0.2
7,RWIE,≤ 0.2
8,AGWE,≤ 0.2
9,SWCF,≤ 0.2
10,AILG,≤ 0.2
11,RGCM,≤ 0.2
12,CDVT,≤ 0.2
13,YSTK,≤ 0.2
14,RADK,≤ 0.2
15,EAVR,≤ 0.2
16,TWDV,≤ 0.2
17,INQR,≤ 0.2
18,FHKT,≤ 0.2
19,VLGT,≤ 0.2
20,RCCI,≤ 0.2
21,NPPA,≤ 0.2
22,PRVT,≤ 0.2
23,AIDT,≤ 0.2
24,FTRV,≤ 0.2
25,NTLR,≤ 0.2
26,HTWV,≤ 0.2

row,Variant,one-hybrid fitness for binding NBS DNA
1,FHKV,≤ 0.2
2,QMMK,≤ 0.2
3,CYGL,≤ 0.2
4,VRGT,0.27
5,GIKR,≤ 0.2
6,DAIP,≤ 0.2
7,SKYN,≤ 0.2
8,RQHE,≤ 0.2
9,GANV,≤ 0.2
10,VLSR,≤ 0.2
11,NYCK,≤ 0.2
12,QRGK,0.445
13,FVNN,≤ 0.2
14,AEVY,≤ 0.2
15,TMIG,≤ 0.2
16,RMGC,≤ 0.2
17,EKIS,≤ 0.2
18,IIGS,≤ 0.2
19,TVNK,≤ 0.2
20,RGGR,≤ 0.2
21,GATS,≤ 0.2
22,MCYV,≤ 0.2
23,EDVR,≤ 0.2
